Results reported in PubChem BioAssay AID504339 (National Center for Advancing Translational Sciences (NCATS), 2011).
Out of some 390,000 compounds screened, about 17,000 (4.4%) were called active. Inconclusive means that the source gave no clear call. Such entries were picked first, then a sample of the others. Calls follow the shape of the dose curve; as a rule, active = well fitted inhibition curve with a large enough effect; inconclusive = small, poorly fitted or top-dose-only effect; inactive = no such curve, though single readings can be large or run the other way. A potency beside an inconclusive call is a rough fit, not a confirmed value.

target: Lysine-specific demethylase 4A (Homo sapiens) (UniProt O75164); assay: qHTS Assay for Inhibitors of JMJD2A-Tudor Domain; details: AlphaScreen JMJD2A-Tudor / H3K4me3 peptide binding; activity change, negative = inhibition: at 114 µM (top of the series); also: nearly all actives have a fitted effect of over 50% in size
UniProt O75164, sequence (O75164 whole entry, looked up, the tested form may be a part): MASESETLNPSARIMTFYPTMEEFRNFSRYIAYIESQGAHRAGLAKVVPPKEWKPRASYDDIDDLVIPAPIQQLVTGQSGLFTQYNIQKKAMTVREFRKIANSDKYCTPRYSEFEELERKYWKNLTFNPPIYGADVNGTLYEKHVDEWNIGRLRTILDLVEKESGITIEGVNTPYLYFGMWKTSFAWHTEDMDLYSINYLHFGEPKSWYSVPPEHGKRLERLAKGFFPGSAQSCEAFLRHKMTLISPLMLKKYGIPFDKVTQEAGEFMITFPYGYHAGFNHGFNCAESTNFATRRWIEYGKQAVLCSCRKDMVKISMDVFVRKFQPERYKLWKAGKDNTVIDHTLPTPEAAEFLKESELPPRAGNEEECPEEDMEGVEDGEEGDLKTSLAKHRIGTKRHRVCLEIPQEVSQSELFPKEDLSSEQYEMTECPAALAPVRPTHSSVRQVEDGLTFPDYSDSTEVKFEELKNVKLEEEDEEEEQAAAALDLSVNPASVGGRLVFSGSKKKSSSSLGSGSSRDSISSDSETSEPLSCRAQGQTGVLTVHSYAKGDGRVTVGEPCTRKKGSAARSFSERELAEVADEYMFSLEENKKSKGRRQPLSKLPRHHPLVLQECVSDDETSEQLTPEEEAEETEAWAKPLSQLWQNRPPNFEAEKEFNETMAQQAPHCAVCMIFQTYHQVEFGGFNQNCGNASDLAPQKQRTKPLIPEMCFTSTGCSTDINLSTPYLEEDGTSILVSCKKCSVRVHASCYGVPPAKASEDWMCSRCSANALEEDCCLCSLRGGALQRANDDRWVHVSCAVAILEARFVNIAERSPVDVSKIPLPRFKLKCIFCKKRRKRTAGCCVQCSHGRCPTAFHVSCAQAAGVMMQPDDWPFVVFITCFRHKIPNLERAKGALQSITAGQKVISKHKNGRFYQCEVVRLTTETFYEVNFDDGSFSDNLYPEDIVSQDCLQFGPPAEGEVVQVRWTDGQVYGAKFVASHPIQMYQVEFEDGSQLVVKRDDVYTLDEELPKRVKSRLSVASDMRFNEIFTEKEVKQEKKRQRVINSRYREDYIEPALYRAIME
% is scaled to controls: 0 for no effect and ±100 for the full control effect; potency is read from the fitted curve at half-maximal effect; tags tell the direction and shape of the fitted curve.

Row | Compound | Potency | activity change, negative = inhibition
1 | CCN1CCN(c2ccc(N=Cc3ccc(O)cc3O)cc2)CC1 | inconclusive: 25.1 µM [inhibitor, full curve] | –
2 | Cc1ccc(NC(=O)Cn2c(C)cc(C)c(C#N)c2=O)c(Cl)c1 | – | inactive: -5.84%
3 | CCCCC(=O)NC(c1ccc([N+](=O)[O-])cc1)c1c(O)ccc2ccccc12 (centres undefined) | inconclusive: 14.1 µM [inhibitor, full curve] | –
4 | COc1ccc(NC(=O)CCS(=O)(=O)c2cc(Br)cc3c2N(C(C)=O)CC3)c(OC)c1 | – | inactive: -31.7%
5 | C1CCN(CC2CCCCN2)CC1 (centres undefined) | inconclusive: 39.8 µM [inhibitor, single point] | –
6 | Nc1c(O)ccc2c1C(=O)c1ccccc1C2=O | inconclusive: 31.6 µM [inhibitor, single point] | –
7 | Cc1cc(C(=O)COC(=O)c2ccc(O)cc2)c(C)n1Cc1ccco1 | inconclusive: 50.1 µM [inhibitor, partial curve] | –
8 | Cn1c(CNc2ccc(Cl)cc2)nc2ccccc21 | – | inactive: -26.2%
9 | CCn1ncc(CN2CCCC(C(=O)Nc3cccc(-c4cc5ccccc5[nH]4)c3)C2)c1C (centres undefined) | inconclusive: 63.1 µM [inhibitor, partial curve] | –
10 | CCn1c(SC(C)C)nnc1C1CCN(S(=O)(=O)c2ccc(OC)cc2)CC1 | active: 44.7 µM | –
11 | CCN(CC)C(=O)[C@H]1C[C@H](CC(=O)NCc2ccco2)C(=O)N2CCc3c([nH]c4ccc(Cl)cc34)[C@]12C | inconclusive: 79.4 µM [inhibitor, partial curve] | –
12 | O=C(Nc1nc(N2C(=O)c3ccccc3C2=O)n(-c2ccccc2)n1)c1ccccc1 | inconclusive: 89.1 µM [inhibitor, single point] | –
13 | Cc1csc2nc(CNS(=O)(=O)c3ccc4c(c3)OCCO4)cn12 | – | inactive: -1.39%
14 | CCN(CC)CCN(Cc1cc2ccc(C)c(C)c2[nH]c1=O)C(=S)NCc1ccco1 | inconclusive: 79.4 µM [inhibitor, partial curve] | –
15 | CCCc1[nH]n(-c2nc3ccccc3s2)c(=O)c1C=NCC1CCCO1 (centres undefined) | inconclusive: 100 µM [inhibitor, partial curve, poor fit] | –
16 | COc1ccc(S(=O)(=O)Nc2ccc(O)c(Sc3nc4ccccc4s3)c2)cc1 | inconclusive: 35.5 µM [inhibitor, single point] | –
17 | COc1ccc(CN2CCN(C(=O)c3cccnc3)CC2)cc1Br | active: 3.16 µM | –
18 | CCCCN(C)S(=O)(=O)c1ccc(C(=O)Nc2nnc(C3=COCCO3)o2)cc1 | inconclusive: 56.2 µM [inhibitor, partial curve] | –
19 | C[C@H](CO)N1C[C@H](C)[C@@H](CN(C)Cc2ccc(Oc3ccccc3)cc2)Oc2c(NS(=O)(=O)c3cn(C)cn3)cccc2C1=O | inconclusive: 56.2 µM [inhibitor, partial curve] | –
20 | COC(=O)c1c(NC(=O)c2ccc([N+](=O)[O-])o2)sc2c1CCN(C(C)C)C2 | inconclusive: 56.2 µM [inhibitor, partial curve] | –
21 | Cn1c(=O)c2c(ncn2CC(=O)Nc2cccc(S(=O)(=O)Nc3ccccc3F)c2)n(C)c1=O | – | inactive: -2.06%
22 | CC(C)OCCCNC(=O)CCSc1ccc(Cl)cc1 | – | inactive: -0.641%
23 | CC(=O)NC1=C(NC2CCS(=O)(=O)C2)C(=O)c2ccccc2C1=O (centres undefined) | active: 20 µM | –

Row | Compound | Potency | activity change, negative = inhibition
24 | COc1cccc(-c2nnn(CC(=O)N3CCCCC3)n2)c1 | – | inactive: -6.16%
25 | CCOc1ccc2nc(Cl)c(C3CC(c4ccc(C)cc4)=NN3C(=O)CCCC(=O)O)cc2c1 (centres undefined) | inconclusive: 10 µM [inhibitor, full curve, poor fit] | –
26 | CNc1oc(C)nc1S(=O)(=O)c1ccccc1 | inconclusive: 89.1 µM [inhibitor, single point] | –
27 | CN(C)CCN(C)Cc1ccccc1Sc1cccc2ccccc12 | inconclusive: 35.5 µM [inhibitor, partial curve] | –
28 | Cc1ccc(S(=O)(=O)Oc2ccccc2/C=C2\SC(=O)NC2=O)cc1 | – | inactive: -17.5%
29 | COc1ccc(-c2csc(N(CC(C)C)C(=O)c3ccco3)n2)cc1 | – | inactive: 6.16%
30 | O=[N+]([O-])c1cc([N+](=O)[O-])c(Oc2c(Cl)cccc2Cl)cc1NN1CCCCC1 | inconclusive: 50.1 µM [inhibitor, partial curve] | –
31 | Cc1c(S(=O)(=O)Nc2ccc(Oc3ccccc3)cc2)c(=O)n(C)c(=O)n1C | – | inactive: -12.4%
32 | Cc1ccc2nc(SCC(=O)Nc3cccc([N+](=O)[O-])c3)[nH]c2c1 | inconclusive: 50.1 µM [inhibitor, partial curve] | –
33 | COc1cc(NC(=O)Cn2c(C)cc(C)c(C#N)c2=O)cc(OC)c1 | – | inactive: -20.5%
34 | CN(C)CCCNCCCNC(=O)/C(=N\O)c1ccccc1 | inconclusive: 35.5 µM [inhibitor, single point] | –
35 | CC(C)c1ccc(CNc2cc(N3CCCC3)ccc2[N+](=O)[O-])cc1 | inconclusive: 12.6 µM [inhibitor, full curve] | –
36 | CC1Cc2ccccc2N1S(=O)(=O)c1cccc2nsnc12 (centres undefined) | inconclusive: 39.8 µM [inhibitor, partial curve] | –
37 | O=C(Nc1ccccc1)C(=O)c1cn(CC(=O)N2CCCCC2)c2ccccc12 | – | inactive: -11.2%
38 | CCCCCCSc1cc(-c2nc3ccc(C)cn3c2NCc2ccccc2)ccc1OC | inconclusive: 35.5 µM [inhibitor, partial curve] | –
39 | O=C(CCC(=O)Nc1cccc(Cl)c1)N/N=C/c1cc([N+](=O)[O-])ccc1O | – | inactive: -21.5%
40 | Nc1nonc1-n1nnc(C(=O)N/N=C\c2cccc(Cl)c2)c1CN1CCOCC1 | – | inactive: -12%
41 | Cc1cccc(C)c1N1CCN(C(=O)Cn2cncn2)CC1 | inconclusive: 79.4 µM [inhibitor, partial curve] | –
42 | Cc1cccc(Cl)c1OCCCN1CCOCC1 | active: 1.58 µM | –
43 | COc1ccc(/C=N/n2cnc3c([nH]c4ccc(C)cc43)c2=O)cc1CN1CCCC1 | inconclusive: 70.8 µM [inhibitor, partial curve, poor fit] | –
44 | Cc1ccc(C)c(NS(=O)(=O)c2ccc(-c3cnc(C4CC4)o3)cc2)c1 | inconclusive: 50.1 µM [inhibitor, partial curve] | –
45 | O=C(CC1S/C(=N/N=C2CCCCCC2)NC1=O)Nc1ccccc1C(F)(F)F (centres undefined) | – | inactive: -12%
46 | O=C(CN1CCN(c2nc(-c3ccccc3)cs2)CC1)Nc1ccc2c(c1)OCO2 | inconclusive: 39.8 µM [inhibitor, partial curve] | –

Row | Compound | Potency | activity change, negative = inhibition
47 | C/C(=N\NC(=O)c1cccc(Cl)c1)C1C(=O)c2ccccc2C1=O | inconclusive: 35.5 µM [inhibitor, single point] | –
48 | Cn1cc(CN2C[C@H]3CC[C@H]2C3)c(-c2ccccc2F)n1 | – | inactive: -9.66%
49 | O=C(CN1CCN(c2ccc(Cl)cc2)CC1)Nc1ccc(F)cc1 | – | inactive: -19.3%
50 | COc1ccccc1N1CCN(C(=O)c2cc(-c3ccco3)on2)CC1 | inconclusive: 89.1 µM [inhibitor, single point] | –
51 | CSCCC(NC(=O)c1ccccc1)C(=O)N/N=C(\C)Cc1ccccc1 (centres undefined) | – | inactive: -11.3%
52 | CCCS(=O)(=O)c1c(S(=O)(=O)CCC)c2cc(C(C)(C)C)ccn2c1C(=O)c1ccc(OC)c(OC)c1 | inconclusive: 22.4 µM [inhibitor, full curve] | –
53 | Oc1ccc(-c2nc3ccccc3nc2-c2ccc(O)cc2O)c(O)c1 | inconclusive: 15.8 µM [inhibitor, partial curve] | –
54 | Cc1nc(C)c(-c2csc(NCc3ccccc3)n2)s1 | inconclusive: 50.1 µM [inhibitor, partial curve] | –
55 | CN1CCN(S(=O)(=O)c2ccc3[nH]cc(C(=O)O)c(=O)c3c2)CC1 | inconclusive: 39.8 µM [inhibitor, single point] | –
56 | CCSc1ccccc1C(=O)n1nnc2ccccc21 | – | inactive: 66.4%
57 | CC(C)CC(c1nnnn1C(C)C)N1CCN(c2ccccc2)CC1 (centres undefined) | inconclusive: 89.1 µM [inhibitor, single point] | –
58 | CN(C)/C=C/C(=O)c1ccc2noc(-c3cccc(F)c3)c2c1 | inconclusive: 63.1 µM [inhibitor, partial curve, poor fit] | –
59 | CN(C)S(=O)(=O)c1ccc2c(c1)C(=O)c1cc(S(=O)(=O)N(C)C)ccc1CC2 | – | inactive: -23.2%
60 | CCCCCCC(=O)Nc1nc(C)c(-c2csc(Nc3cc(Cl)ccc3OC)n2)s1 | inconclusive: 79.4 µM [inhibitor, partial curve] | –
61 | Cc1sc(N)nc1-c1ccc(Oc2ccccc2)cc1 | inconclusive: 50.1 µM [inhibitor, partial curve] | –
62 | CC(=O)c1cc2c(cc1N(C(=O)c1ccco1)C(C(=O)NC1CCCC1)c1ccccc1F)OCO2 (centres undefined) | inconclusive: 79.4 µM [inhibitor, single point] | –
63 | Cc1cc(Cl)ccc1NC(=O)COC(=O)c1cc([N+](=O)[O-])ccc1N1CCOCC1 | inconclusive: 56.2 µM [inhibitor, partial curve] | –
64 | O=C(NC1CCN(Cc2ccc(Cl)cc2)CC1)c1cn(-c2ccccc2)nc1-c1cccnc1 | inconclusive: 56.2 µM [inhibitor, partial curve, poor fit] | –
65 | Cc1nc(N)sc1-c1csc(Nc2ncccn2)n1 | inconclusive: 70.8 µM [inhibitor, partial curve, poor fit] | –
66 | Cc1ccc(-c2nc(C(=O)NCc3ccc(Cl)cc3)c3n2CCCCC3)cc1 | – | inactive: -6.58%
67 | COc1cccc(C2C(C(=O)c3cccs3)=C(O)C(=O)N2CCN2CCOCC2)c1 (centres undefined) | – | inactive: -7.05%
68 | O=C(NNS(=O)(=O)c1ccc(Br)cc1)c1ccccc1-n1cccc1 | – | inactive: -10.6%
69 | O=C(NCCN1CCOCC1)c1c[nH]c2ccc(S(=O)(=O)N3CCOCC3)cc2c1=O | inconclusive: 3.98 µM [inhibitor, partial curve, poor fit] | –
